Assay results from the supplement of paper PMC12067230.
The data scatter; read single values as rough.

Assay: amyloid nucleation score relative to library mode (yeast Sup35 reporter selection) (log enrichment difference); higher = more amyloid nucleation; sequences are the first 22 residues of the Bri2 peptide extended by up to 12 random residues
Conditions: random library (experiment): 1;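 active = nucleation score significantly above 0 at FDR 0.05; inactive = not significantly above 0 or absent from output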
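Note: [psi-pin-] Saccharomyces cerevisiae expressing SupN fusions, induced by 100 µM Cu2SO4, selected 7 d at 30 °C without adenine and uracil, scored by deep sequencing of output versus input.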

Question: For EASNCFAIRHFENKFAVETLICYVRTYRWTHAVP, which amyloid nucleation score is on record?
Answer: Its amyloid nucleation score is “inactive”.

Question: For EASNCFAIRHFENKFAVETLICAEWLMWWTVGSV, which amyloid nucleation score is on record?
Answer: The amyloid nucleation score was 3.68.

Question: With EASNCFAIRHFENKFAVETLICERTICGIYCLCW as the sequence, how does the amyloid nucleation score read?
Answer: Its amyloid nucleation score is “inactive”.

Question: With EASNCFAIRHFENKFAVETLICFHALDHSRGRSA as the sequence, how does the amyloid nucleation score read?
Answer: Its amyloid nucleation score is “inactive”.

Question: With EASNCFAIRHFENKFAVETLICLCPVQFKYAAQG as the sequence, how does the amyloid nucleation score read?
Answer: Its amyloid nucleation score is 4.94.

Question: For EASNCFAIRHFENKFAVETLICDLYSSSIPHTHF, which amyloid nucleation score is on record?
Answer: The amyloid nucleation score was 1.37.

Question: For EASNCFAIRHFENKFAVETLICMEYARCRTRVV, which amyloid nucleation score is on record?
Answer: The amyloid nucleation score was “inactive”.

Question: Which amyloid nucleation score does the source give for EASNCFAIRHFENKFAVETLICQARLEWECNKQA here?
Answer: The amyloid nucleation score was “inactive”.

Question: For EASNCFAIRHFENKFAVETLICLPYGRAKRVQVG, which amyloid nucleation score is on record?
Answer: Its amyloid nucleation score is “inactive”.

Question: For EASNCFAIRHFENKFAVETLICRAGWKLTWGLPA, which amyloid nucleation score is on record?
Answer: Its amyloid nucleation score is “inactive”.

Question: With EASNCFAIRHFENKFAVETLICQEGKD as the sequence, how does the amyloid nucleation score read?
Answer: Its amyloid nucleation score is “inactive”.

Question: Which amyloid nucleation score does the source give for EASNCFAIRHFENKFAVETLICDWMES here?
Answer: Its amyloid nucleation score is -0.0385.

Question: Which amyloid nucleation score does the source give for EASNCFAIRHFENKFAVETLICEARIYCAAPGPG here?
Answer: Its amyloid nucleation score is “inactive”.

Question: Which amyloid nucleation score does the source give for EASNCFAIRHFENKFAVETLICTYVAWWHSVTKH here?
Answer: Its amyloid nucleation score is “inactive”.

Question: With EASNCFAIRHFENKFAVETLICWMW as the sequence, how does the amyloid nucleation score read?
Answer: The amyloid nucleation score was 5.97.

Question: With EASNCFAIRHFENKFAVETLICPYYVGFMYVLSP as the sequence, how does the amyloid nucleation score read?
Answer: The amyloid nucleation score was 2.87.

Question: For EASNCFAIRHFENKFAVETLICFPCCFFMVFLYR, which amyloid nucleation score is on record?
Answer: Its amyloid nucleation score is “inactive”.

Question: Which amyloid nucleation score does the source give for EASNCFAIRHFENKFAVETLICRAEDLYAKKKRW here?
Answer: The amyloid nucleation score was “inactive”.

Question: For EASNCFAIRHFENKFAVETLICRRLLMAARTRVA, which amyloid nucleation score is on record?
Answer: The amyloid nucleation score was 0.618.

Question: Which amyloid nucleation score does the source give for EASNCFAIRHFENKFAVETLICDAYVAVVCALAR here?
Answer: Its amyloid nucleation score is “inactive”.

Question: For EASNCFAIRHFENKFAVETLICKGRNILSTKTFG, which amyloid nucleation score is on record?
Answer: Its amyloid nucleation score is “inactive”.

Question: For EASNCFAIRHFENKFAVETLICACKTA, which amyloid nucleation score is on record?
Answer: The amyloid nucleation score was “inactive”.

Question: Which amyloid nucleation score does the source give for EASNCFAIRHFENKFAVETLICPHEVDVDLFYDE here?
Answer: The amyloid nucleation score was 4.19.

Question: Which amyloid nucleation score does the source give for EASNCFAIRHFENKFAVETLICTGTLSRSRQPGR here?
Answer: Its amyloid nucleation score is -0.546.

Question: Which amyloid nucleation score does the source give for EASNCFAIRHFENKFAVETLICRVFWWLRVASGD here?
Answer: Its amyloid nucleation score is “inactive”.

Question: Which amyloid nucleation score does the source give for EASNCFAIRHFENKFAVETLICGMTEDLGTFV here?
Answer: The amyloid nucleation score was “inactive”.

Question: Which amyloid nucleation score does the source give for EASNCFAIRHFENKFAVETLICCQYHQNGLGWYR here?
Answer: The amyloid nucleation score was 6.94.

Question: With EASNCFAIRHFENKFAVETLICEFHSCTQCASHL as the sequence, how does the amyloid nucleation score read?
Answer: Its amyloid nucleation score is 7.

Question: For EASNCFAIRHFENKFAVETLICFIAF, which amyloid nucleation score is on record?
Answer: The amyloid nucleation score was 4.62.

Question: With EASNCFAIRHFENKFAVETLICACGCLCCGNVGG as the sequence, how does the amyloid nucleation score read?
Answer: Its amyloid nucleation score is 6.91.

Question: For EASNCFAIRHFENKFAVETLICLYYWIQERWHSW, which amyloid nucleation score is on record?
Answer: The amyloid nucleation score was “inactive”.

Question: For EASNCFAIRHFENKFAVETLICLTAYIGESSCGD, which amyloid nucleation score is on record?
Answer: Its amyloid nucleation score is 7.73.

Question: Which amyloid nucleation score does the source give for EASNCFAIRHFENKFAVETLICRNQRREAPEPTG here?
Answer: Its amyloid nucleation score is “inactive”.

Question: With EASNCFAIRHFENKFAVETLICAVSVAYLAALVR as the sequence, how does the amyloid nucleation score read?
Answer: The amyloid nucleation score was “inactive”.

Question: With EASNCFAIRHFENKFAVETLICGGTSVRSKGMWR as the sequence, how does the amyloid nucleation score read?
Answer: Its amyloid nucleation score is “inactive”.

Same assay, conditions: random library (experiment): 2

Question: For EASNCFAIRHFENKFAVETLICPGTKGWTPTWFT, which amyloid nucleation score is on record?
Answer: The amyloid nucleation score was 4.08.

Question: With EASNCFAIRHFENKFAVETLICAGLLRY as the sequence, how does the amyloid nucleation score read?
Answer: Its amyloid nucleation score is “inactive”.

Question: Which amyloid nucleation score does the source give for EASNCFAIRHFENKFAVETLICRKAHLALLSWHL here?
Answer: The amyloid nucleation score was “inactive”.

Question: For EASNCFAIRHFENKFAVETLICVFPVLGEFIKQR, which amyloid nucleation score is on record?
Answer: Its amyloid nucleation score is 7.54.

Question: For EASNCFAIRHFENKFAVETLICYILDVDNLCSGL, which amyloid nucleation score is on record?
Answer: Its amyloid nucleation score is 5.89.

Question: With EASNCFAIRHFENKFAVETLICDGELFLGHQCS as the sequence, how does the amyloid nucleation score read?
Answer: Its amyloid nucleation score is “inactive”.

Question: For EASNCFAIRHFENKFAVETLICYTCRSIWCISKL, which amyloid nucleation score is on record?
Answer: The amyloid nucleation score was “inactive”.

Question: Which amyloid nucleation score does the source give for EASNCFAIRHFENKFAVETLICNSTCH here?
Answer: The amyloid nucleation score was “inactive”.

Question: For EASNCFAIRHFENKFAVETLICAPWDAGWFSVCV, which amyloid nucleation score is on record?
Answer: The amyloid nucleation score was 2.93.

Question: Which amyloid nucleation score does the source give for EASNCFAIRHFENKFAVETLICTLYNFHKRLFNR here?
Answer: Its amyloid nucleation score is 0.478.

Question: For EASNCFAIRHFENKFAVETLICFIFYALFWFFTP, which amyloid nucleation score is on record?
Answer: Its amyloid nucleation score is “inactive”.

Question: Which amyloid nucleation score does the source give for EASNCFAIRHFENKFAVETLICNAKHF here?
Answer: The amyloid nucleation score was “inactive”.

Question: Which amyloid nucleation score does the source give for EASNCFAIRHFENKFAVETLICLMLAGYN here?
Answer: Its amyloid nucleation score is “inactive”.

Question: With EASNCFAIRHFENKFAVETLICDFALSYIDKYGV as the sequence, how does the amyloid nucleation score read?
Answer: The amyloid nucleation score was “inactive”.

Question: Which amyloid nucleation score does the source give for EASNCFAIRHFENKFAVETLICQIHNYISMSGRW here?
Answer: Its amyloid nucleation score is 6.31.

Question: Which amyloid nucleation score does the source give for EASNCFAIRHFENKFAVETLICVLMCSKCGVRCV here?
Answer: The amyloid nucleation score was “inactive”.

Question: With EASNCFAIRHFENKFAVETLICYIY as the sequence, how does the amyloid nucleation score read?
Answer: The amyloid nucleation score was 6.47.

Question: Which amyloid nucleation score does the source give for EASNCFAIRHFENKFAVETLICRKYTREE here?
Answer: Its amyloid nucleation score is -0.122.

Question: For EASNCFAIRHFENKFAVETLICRLLVFFVYKVNR, which amyloid nucleation score is on record?
Answer: The amyloid nucleation score was “inactive”.

Question: For EASNCFAIRHFENKFAVETLICTDDSNESDSWNC, which amyloid nucleation score is on record?
Answer: Its amyloid nucleation score is 0.35.

Question: For EASNCFAIRHFENKFAVETLICNVVFVCTPRWIT, which amyloid nucleation score is on record?
Answer: Its amyloid nucleation score is 4.8.

Question: For EASNCFAIRHFENKFAVETLICDYSR, which amyloid nucleation score is on record?
Answer: Its amyloid nucleation score is “inactive”.

Question: Which amyloid nucleation score does the source give for EASNCFAIRHFENKFAVETLICAMVIARLWVLRD here?
Answer: The amyloid nucleation score was “inactive”.

Question: With EASNCFAIRHFENKFAVETLICLFTSRECGRWFL as the sequence, how does the amyloid nucleation score read?
Answer: The amyloid nucleation score was “inactive”.

Question: Which amyloid nucleation score does the source give for EASNCFAIRHFENKFAVETLICCSVRVNYHGWWK here?
Answer: The amyloid nucleation score was 6.59.

Question: With EASNCFAIRHFENKFAVETLICFDVFCS as the sequence, how does the amyloid nucleation score read?
Answer: The amyloid nucleation score was 6.21.

Question: For EASNCFAIRHFENKFAVETLICGRKRYH, which amyloid nucleation score is on record?
Answer: The amyloid nucleation score was “inactive”.

Question: For EASNCFAIRHFENKFAVETLICVLYFLYSYVNC, which amyloid nucleation score is on record?
Answer: Its amyloid nucleation score is “inactive”.

Question: For EASNCFAIRHFENKFAVETLICNNDKVLTYHGYQ, which amyloid nucleation score is on record?
Answer: The amyloid nucleation score was 4.75.

Question: Which amyloid nucleation score does the source give for EASNCFAIRHFENKFAVETLICRYRKRWYYYYNV here?
Answer: The amyloid nucleation score was “inactive”.

Question: Which amyloid nucleation score does the source give for EASNCFAIRHFENKFAVETLICYSLYILEVNERS here?
Answer: The amyloid nucleation score was 2.94.

Question: For EASNCFAIRHFENKFAVETLICDLYGYGWSIRLF, which amyloid nucleation score is on record?
Answer: Its amyloid nucleation score is “inactive”.

Question: Which amyloid nucleation score does the source give for EASNCFAIRHFENKFAVETLICRNRI here?
Answer: Its amyloid nucleation score is “inactive”.

Same assay, conditions: random library (experiment): 3

Question: For EASNCFAIRHFENKFAVETLICPVR, which amyloid nucleation score is on record?
Answer: The amyloid nucleation score was “inactive”.

Question: Which amyloid nucleation score does the source give for EASNCFAIRHFENKFAVETLICHGGELVRGVYGV here?
Answer: The amyloid nucleation score was -0.281.

Question: With EASNCFAIRHFENKFAVETLICCFRGRGSMMACW as the sequence, how does the amyloid nucleation score read?
Answer: Its amyloid nucleation score is “inactive”.

Question: Which amyloid nucleation score does the source give for EASNCFAIRHFENKFAVETLICWFAR here?
Answer: The amyloid nucleation score was 4.

Question: For EASNCFAIRHFENKFAVETLICECRWGGFLFHRL, which amyloid nucleation score is on record?
Answer: The amyloid nucleation score was “inactive”.

Question: Which amyloid nucleation score does the source give for EASNCFAIRHFENKFAVETLICVRLG here?
Answer: Its amyloid nucleation score is “inactive”.

Question: With EASNCFAIRHFENKFAVETLICPNQCVCLSGRLR as the sequence, how does the amyloid nucleation score read?
Answer: The amyloid nucleation score was 4.23.

Question: With EASNCFAIRHFENKFAVETLICCLWVGSEAATSW as the sequence, how does the amyloid nucleation score read?
Answer: Its amyloid nucleation score is 8.14.

Question: With EASNCFAIRHFENKFAVETLICFEGQVTSAPATR as the sequence, how does the amyloid nucleation score read?
Answer: The amyloid nucleation score was “inactive”.

Question: Which amyloid nucleation score does the source give for EASNCFAIRHFENKFAVETLICVWRSARRRGARA here?
Answer: The amyloid nucleation score was “inactive”.

Question: With EASNCFAIRHFENKFAVETLICCVGVLNFPYFMA as the sequence, how does the amyloid nucleation score read?
Answer: Its amyloid nucleation score is 8.52.

Question: Which amyloid nucleation score does the source give for EASNCFAIRHFENKFAVETLICRVHSYVRSRSQR here?
Answer: Its amyloid nucleation score is “inactive”.

Question: Which amyloid nucleation score does the source give for EASNCFAIRHFENKFAVETLICNRLLSSLVVARH here?
Answer: The amyloid nucleation score was “inactive”.

Question: For EASNCFAIRHFENKFAVETLICFPGKSNVQYREQ, which amyloid nucleation score is on record?
Answer: The amyloid nucleation score was 3.78.

Question: For EASNCFAIRHFENKFAVETLICACRRVADDWYLA, which amyloid nucleation score is on record?
Answer: Its amyloid nucleation score is “inactive”.

Question: With EASNCFAIRHFENKFAVETLICHCHNRRERTCLQ as the sequence, how does the amyloid nucleation score read?
Answer: The amyloid nucleation score was 3.85.

Question: For EASNCFAIRHFENKFAVETLICFCGGDGVELAWV, which amyloid nucleation score is on record?
Answer: The amyloid nucleation score was 3.9.

Question: Which amyloid nucleation score does the source give for EASNCFAIRHFENKFAVETLICLETSSWMKGDSQ here?
Answer: Its amyloid nucleation score is 0.749.
